{"source": "PubChem BioAssay AID1479", "about": "(National Center for Advancing Translational Sciences (NCATS), 2009)", "note": "The whole screen tested about 280,000 compounds, of which about 820 (0.29%) were called active. Inconclusive means that the source gave no clear call. Such entries were picked first, then a sample of the others. The call rests on the fitted dose curve; in most records, active means well fitted curve in either direction with a large enough effect; inconclusive means small, poorly fitted or top-dose-only effect; inactive means flat fitted curve, though single readings scatter. Potencies of inconclusive entries are left out as doubtful fits. On the % scale 0 is the no-effect control and ±100 the full control effect; potency means the concentration at half of the fitted maximal effect; tags describe the fitted curve by direction and shape or compound fluorescence and quenching."}
{"assay": "Total Fluorescence Counterscreen for Inhibitors of the Interaction of Thyroid Hormone Receptor and Steroid Receptor Coregulator 2", "conditions": "TRb/SRC2 Texas Red total fluorescence interference; series mostly up to 106 µM; fluorescence change, negative = quenching: at the top concentration", "in_short": "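Human TRβ ligand-binding domain (0.6 uM) and Texas Red SRC2 peptide (20 nM) in Tris buffer with 1 uM T3 and 5% DMSO were incubated with pinned compound for 5 hr at ambient temperature. Total fluorescence was computed as S + 2P (555/632 nm).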"}
{"smiles": "Nc1ncnc2oc(-c3ccco3)c(-c3ccco3)c12", "Potency": "inconclusive [quencher, partial curve]"}
{"smiles": "COc1cc(C(=O)Nc2nc3ccc(C)cc3s2)ccc1OCc1c(C)noc1C", "Potency": "inconclusive [fluorescent, partial curve]"}
{"smiles": "COc1ccc(OCC(=O)Nc2ccc3c(c2)nc(CCNC(=O)c2ccco2)n3C)cc1", "Potency": "inconclusive [quencher, full curve]"}
{"smiles": "Cc1nn(CC(=O)NCc2ccc(Cl)cc2)c(=O)c2cc3sccc3n12", "Potency": "inconclusive [falling, full curve, poor fit]"}
{"smiles": "Nc1ccc2c(c1Cl)C(=O)c1ccc(N)c(Cl)c1C2=O", "Potency": "inconclusive [quencher, full curve]"}
{"smiles": "COc1ccc(-n2nc(C(=O)Nc3cc(OC)c(OC)c(OC)c3)c(=O)n(C)c2=O)cc1", "Potency": "inconclusive [falling, partial curve, poor fit]"}
{"smiles": "NC(=O)c1cccc([N+](=O)[O-])c1", "fluorescence change, negative = quenching": "inactive: 0.0084%"}
{"smiles": "CCc1ccc2oc(C(=O)Nc3c(C)n(C)n(-c4ccccc4)c3=O)cc(=O)c2c1", "Potency": "inconclusive [falling, partial curve, poor fit]"}
{"smiles": "COC(=O)c1ccc(C2c3c(oc4ccccc4c3=O)C(=O)N2c2nc(C)c(C(=O)OC)s2)cc1", "note": "(stereo unspecified)", "Potency": "inconclusive [falling, full curve, poor fit]"}
{"smiles": "Cc1ccc(C)c(N2CCN(C(=O)c3cc(C)nc4c3c(C)nn4-c3cccc(F)c3)CC2)c1", "fluorescence change, negative = quenching": "inactive: 6.29%"}
{"smiles": "CCOc1ccc(C(=O)NCCc2sc(-c3ccc(OC)c(OC)c3)nc2C)cc1", "Potency": "inconclusive [quencher, full curve]"}
{"smiles": "CCS(=O)(=O)c1ccc(O)c(Nc2cc(C)nc(SC)n2)c1", "Potency": "active: 0.1 µM [quencher]"}
{"smiles": "O=C(Oc1ccc(OC(=O)c2ccco2)c(S(=O)(=O)c2ccc(Br)cc2)c1)c1ccco1", "fluorescence change, negative = quenching": "inactive: 2.63%"}
{"smiles": "COc1cc(N2CCOCC2)ccc1C=C(C#N)C#N", "Potency": "inconclusive [rising, single point]"}
{"smiles": "Cc1cccnc1NC(=S)NC(=O)/C=C/c1ccco1", "Potency": "inconclusive [quencher, partial curve]"}
{"smiles": "COCCNC(=O)CCSc1nc(-c2ccc(OC)cc2)cc(C(F)(F)F)n1", "Potency": "inconclusive [falling, full curve, poor fit]"}
{"smiles": "COC(=O)c1nnc(N[C@@H](Cc2c[nH]c3ccccc23)C(=O)OC)nc1C(=O)OC", "fluorescence change, negative = quenching": "inactive: -1.69%"}
{"smiles": "Cc1cc(C)c(NC(=O)Nc2sc3nc4n(c(=O)c3c2C)CCC(C)CC4)c(C)c1", "note": "(stereo unspecified)", "Potency": "inconclusive [quencher, full curve]"}
{"smiles": "O=C(Cn1c(-c2cccs2)cc2ccccc21)NCCCN1CCN(c2ccc(F)cc2)CC1", "Potency": "active: 63.1 µM [quencher]"}
{"smiles": "CCOC(=O)CSc1nc(-c2ccc(OC)cc2)cc(C(F)(F)F)c1C#N", "Potency": "inconclusive [quencher, full curve]"}
{"smiles": "Cc1ccc(C2=NN(CCC(=O)NCCc3cccc(C)c3)C(=O)CC2)cc1", "Potency": "inconclusive [falling, full curve, poor fit]"}
{"smiles": "COc1cccc(/C=C2/CN(C)CC3=C2OC(N)=C(C#N)C3c2cccc(OC)c2)c1", "note": "(stereo unspecified)", "Potency": "inconclusive [fluorescent, partial curve]"}
{"smiles": "Cc1cccc(-n2ncc(C(=O)N3CCc4ccccc4C3)c2C2CCN(C(=O)OC(C)(C)C)CC2)c1", "Potency": "inconclusive [quencher, full curve]"}
{"smiles": "Cc1noc(C)c1C(=O)Nc1nc(-c2ccccc2Cl)cs1", "Potency": "inconclusive [quencher, full curve]"}
{"smiles": "CC1CC=CC2C1C(=O)N(Cc1ccccc1)C2c1ccoc1", "note": "(stereo unspecified)", "fluorescence change, negative = quenching": "inactive: -1.86%"}
{"smiles": "CC1=CC(c2ccccc2)n2nc(N3C(=O)c4ccccc4C3=O)nc2N1", "note": "(stereo unspecified)", "fluorescence change, negative = quenching": "inactive: -1.45%"}
{"smiles": "Cc1ccc(/C=[N+](\\[O-])c2ccc(N(C)C)cc2)c2nsnc12", "Potency": "active: 39.8 µM [fluorescent]"}
{"smiles": "O=C(CSc1nc(-c2ccccc2)[nH]c1-c1ccccc1)Nc1ccc2c(c1)OCO2", "fluorescence change, negative = quenching": "inactive: -1.94%"}
{"smiles": "Cc1sc2c(c1C)c(=O)n(-c1ccccc1)c(=O)n2CC(=O)c1ccc(Cl)cc1", "Potency": "inconclusive [falling, full curve, poor fit]"}
{"smiles": "CC(C)OCCCn1c(SCC(=O)Nc2ccc(F)cc2)nc2c(sc3ccccc32)c1=O", "fluorescence change, negative = quenching": "inactive: -1.59%"}
{"smiles": "CC(C)(C)C1CCc2c(sc(NC(=O)Cn3nnc(-c4cccc(C(F)(F)F)c4)n3)c2C#N)C1", "note": "(stereo unspecified)", "Potency": "inconclusive [quencher, full curve]"}
{"smiles": "O=C(Nc1ccc(Br)cc1)N1CCC(CN2CCCC2)CC1", "Potency": "active: 44.7 µM [quencher]"}
{"smiles": "CCOc1ccc(NC(=O)CN(Cc2ccccc2)S(=O)(=O)c2ccc(Cl)cc2)cc1", "Potency": "inconclusive [falling, full curve, poor fit]"}
{"smiles": "CC1(C)CC(=O)c2cc(C(=O)Nc3ccc(Br)cc3)c(=O)[nH]c2C1", "Potency": "inconclusive [falling, full curve, poor fit]"}
{"smiles": "COc1ccc(C2=NN(S(C)(=O)=O)C(c3cn(-c4ccccc4)nc3-c3cccs3)C2)cc1", "note": "(stereo unspecified)", "fluorescence change, negative = quenching": "inactive: -1.93%"}
{"smiles": "Fc1ccccc1-c1csc(=Nc2cccnc2)n1CC1CCCO1", "note": "(stereo unspecified)", "fluorescence change, negative = quenching": "inactive: -1.29%"}
{"smiles": "CN1C(=O)CC(Nc2cccc3cccc(N)c23)C1=O", "note": "(stereo unspecified)", "Potency": "inconclusive [falling, partial curve, poor fit]"}
{"smiles": "Cc1cc2c(c(=O)o1)C(c1ccc([N+](=O)[O-])o1)C(C#N)=C(N)O2", "note": "(stereo unspecified)", "fluorescence change, negative = quenching": "inactive: 27.5%"}
{"smiles": "O=C(NC(=S)N1CCN(c2ccc(Cl)cc2[N+](=O)[O-])CC1)c1ccco1", "fluorescence change, negative = quenching": "inactive: -0.615%"}
{"smiles": "CCOC(=O)c1c(-c2ccccc2)oc2ccc(NS(=O)(=O)c3ccc(C)cc3)cc12", "Potency": "active: 39.8 µM [quencher]"}
{"smiles": "Cn1c(=O)c2c(nc(NCCO)n2C)n(C)c1=O", "fluorescence change, negative = quenching": "inactive: -6.46%"}
{"smiles": "O=C(CSc1nnc(CNC(=O)c2ccccc2)n1-c1ccc(F)cc1)Nc1ccccc1F", "Potency": "inconclusive [quencher, partial curve]"}
{"smiles": "C[C@@H]1CC=C[C@@H]2[C@H]1C(=O)N(Cc1ccccc1)[C@H]2c1ccccc1Br", "Potency": "inconclusive [falling, full curve, poor fit]"}
{"smiles": "O=C(NCCc1ccccc1)C(=O)NCC(c1cccnc1)N1CCN(c2ccccc2)CC1", "note": "(stereo unspecified)", "Potency": "inconclusive [falling, full curve, poor fit]"}
{"smiles": "COc1cccc(/C=N/NC(=O)c2ccc3nc[nH]c3c2)c1O", "fluorescence change, negative = quenching": "inactive: -8.84%"}
{"smiles": "CCCOc1ccc(-c2c(C(=O)N/N=C/c3ccc(OCC)cc3)nnn2-c2nonc2N)cc1", "Potency": "inconclusive [quencher, partial curve]"}
{"smiles": "COC(=O)C(N)Cc1ccc(Cl)cc1", "note": "(stereo unspecified)", "fluorescence change, negative = quenching": "inactive: 0.691%"}
{"smiles": "COc1ccccc1N1CCN(S(=O)(=O)CCNC(=O)COc2ccc(F)cc2)CC1", "Potency": "inconclusive [falling, full curve, poor fit]"}
{"smiles": "O=C(O)c1cccc(CN2C(=O)S/C(=C/c3ccccc3[N+](=O)[O-])C2=O)c1", "fluorescence change, negative = quenching": "inactive: -0.45%"}
{"smiles": "CCCCNC(=O)COC(=O)c1cc(Br)ccc1Cl", "Potency": "inconclusive [falling, partial curve, poor fit]"}
{"smiles": "COc1cc(C2C(C(=O)OC(C)C)=C(C)N=C3SCCC(=O)N32)ccc1OCc1ccccc1", "note": "(stereo unspecified)", "Potency": "inconclusive [quencher, full curve]"}
{"smiles": "Cc1ccn2c(=O)c(C(=O)NCCc3ccc(S(N)(=O)=O)cc3)c(O)nc2c1", "Potency": "inconclusive [falling, full curve, poor fit]"}
{"smiles": "CC(=O)Nc1ccc2nc(NC(=O)c3ccc([N+](=O)[O-])s3)sc2c1", "Potency": "inconclusive [falling, single point]"}
{"smiles": "Cc1ccc(N2CCN(c3c(CN4CCCC4)c(=O)oc4ccccc34)CC2)c(C)c1", "fluorescence change, negative = quenching": "inactive: -2.53%"}
{"smiles": "Cc1ccc2nc(-c3ccc(Cl)c(NC(=O)c4cccc([N+](=O)[O-])c4C)c3)oc2c1", "Potency": "active: 15.8 µM [quencher]"}
{"smiles": "CCn1ccc2cc(S(=O)(=O)N3CCC(C(=O)NCc4ccc(OC)cc4)CC3)ccc21", "Potency": "inconclusive [quencher, partial curve]"}
{"smiles": "COc1cc(OC)c(N(C)C(=O)C2CCCN(c3ncnc4c3nc3n4CCCCC3)C2)cc1Cl", "note": "(stereo unspecified)", "Potency": "inconclusive [quencher, full curve]"}
{"smiles": "Cc1ccc(N2C(=O)[C@@H]3C(C(=O)CN4C(=O)c5ccccc5C4=O)=NN[C@@H]3C2=O)c(C)c1", "fluorescence change, negative = quenching": "inactive: -4.65%"}
{"smiles": "O=C(Cn1c(-c2cccs2)cc2cc(F)ccc21)NCCCN1CCN(c2ccccc2F)CC1", "Potency": "inconclusive [quencher, full curve]"}
{"smiles": "Cc1ccc(NC(=O)CN2C(=O)CCn3nc(-c4cccn4C)cc32)c(Cl)c1", "Potency": "inconclusive [falling, full curve, poor fit]"}
{"smiles": "CCc1ccc(NC(=O)Cc2csc(COc3cccc(C)c3)n2)cc1", "fluorescence change, negative = quenching": "inactive: 2.43%"}
{"smiles": "CCn1c(=O)cc(SCC(=O)NCCc2cccc(C)c2)c2ccccc21", "Potency": "inconclusive [falling, partial curve, poor fit]"}
{"smiles": "CCc1ccc(NC(=O)CSc2nc3c(sc4ccccc43)c(=O)n2CCCOC)cc1", "fluorescence change, negative = quenching": "inactive: -10.8%"}
{"smiles": "CC1CCC(NC(=O)c2ccc3c(c2)N(Cc2ccccc2)C(=O)c2ccccc2S3(=O)=O)CC1", "note": "(stereo unspecified)", "Potency": "inconclusive [falling, full curve, poor fit]"}
{"smiles": "COC(=O)Cc1c(C)c2cc3c(c(C)c2oc1=O)OCN(CCc1ccccc1F)C3", "Potency": "inconclusive [falling, full curve, poor fit]"}
{"smiles": "O=C(NCc1ccc(F)cc1)C1CCCN(c2ncnc3onc(-c4ccc(F)cc4)c23)C1", "note": "(stereo unspecified)", "Potency": "active: 15.8 µM [quencher]"}
